These are yes or no findings as the source states them, for the method shown. Some binding calls cover weakened binding; strength is not graded here. For some assays here: Where a sequence is shown, tags or fusion partners need not be part of it.

The chains behind the UniProt entries cited, without tags or fusion partners. Where a name states a change or a piece, a line headed by the entry shows the natural chain unless it says otherwise. Residues count along the entry.
UniProt P43146, residues 26-1097: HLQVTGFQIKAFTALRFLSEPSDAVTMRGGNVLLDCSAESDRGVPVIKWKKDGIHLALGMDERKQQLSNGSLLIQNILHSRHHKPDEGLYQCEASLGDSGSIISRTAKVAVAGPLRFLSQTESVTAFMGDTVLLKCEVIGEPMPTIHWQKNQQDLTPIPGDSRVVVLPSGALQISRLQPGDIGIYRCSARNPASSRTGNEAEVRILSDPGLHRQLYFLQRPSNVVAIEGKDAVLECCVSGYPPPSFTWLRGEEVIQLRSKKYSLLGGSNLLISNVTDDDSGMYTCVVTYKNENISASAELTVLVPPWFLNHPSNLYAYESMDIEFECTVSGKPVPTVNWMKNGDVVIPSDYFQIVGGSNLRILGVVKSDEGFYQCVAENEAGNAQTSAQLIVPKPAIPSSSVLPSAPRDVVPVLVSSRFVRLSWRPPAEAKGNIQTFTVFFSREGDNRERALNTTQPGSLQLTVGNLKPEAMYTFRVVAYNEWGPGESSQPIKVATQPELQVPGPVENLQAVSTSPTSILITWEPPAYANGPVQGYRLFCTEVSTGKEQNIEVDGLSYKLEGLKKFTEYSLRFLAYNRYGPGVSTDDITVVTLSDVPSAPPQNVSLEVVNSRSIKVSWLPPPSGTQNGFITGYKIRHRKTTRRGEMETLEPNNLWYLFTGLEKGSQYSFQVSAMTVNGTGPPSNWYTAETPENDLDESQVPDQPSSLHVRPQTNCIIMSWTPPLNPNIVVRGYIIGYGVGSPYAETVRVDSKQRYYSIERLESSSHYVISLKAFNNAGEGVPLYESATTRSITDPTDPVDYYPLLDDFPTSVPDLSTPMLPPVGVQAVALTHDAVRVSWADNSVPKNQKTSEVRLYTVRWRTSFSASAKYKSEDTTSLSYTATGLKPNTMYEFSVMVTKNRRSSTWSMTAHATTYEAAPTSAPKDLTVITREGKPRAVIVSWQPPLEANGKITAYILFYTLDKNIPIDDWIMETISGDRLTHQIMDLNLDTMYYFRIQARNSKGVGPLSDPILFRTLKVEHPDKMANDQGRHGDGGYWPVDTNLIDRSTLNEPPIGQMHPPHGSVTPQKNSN
UniProt P97798, residues 37-1136: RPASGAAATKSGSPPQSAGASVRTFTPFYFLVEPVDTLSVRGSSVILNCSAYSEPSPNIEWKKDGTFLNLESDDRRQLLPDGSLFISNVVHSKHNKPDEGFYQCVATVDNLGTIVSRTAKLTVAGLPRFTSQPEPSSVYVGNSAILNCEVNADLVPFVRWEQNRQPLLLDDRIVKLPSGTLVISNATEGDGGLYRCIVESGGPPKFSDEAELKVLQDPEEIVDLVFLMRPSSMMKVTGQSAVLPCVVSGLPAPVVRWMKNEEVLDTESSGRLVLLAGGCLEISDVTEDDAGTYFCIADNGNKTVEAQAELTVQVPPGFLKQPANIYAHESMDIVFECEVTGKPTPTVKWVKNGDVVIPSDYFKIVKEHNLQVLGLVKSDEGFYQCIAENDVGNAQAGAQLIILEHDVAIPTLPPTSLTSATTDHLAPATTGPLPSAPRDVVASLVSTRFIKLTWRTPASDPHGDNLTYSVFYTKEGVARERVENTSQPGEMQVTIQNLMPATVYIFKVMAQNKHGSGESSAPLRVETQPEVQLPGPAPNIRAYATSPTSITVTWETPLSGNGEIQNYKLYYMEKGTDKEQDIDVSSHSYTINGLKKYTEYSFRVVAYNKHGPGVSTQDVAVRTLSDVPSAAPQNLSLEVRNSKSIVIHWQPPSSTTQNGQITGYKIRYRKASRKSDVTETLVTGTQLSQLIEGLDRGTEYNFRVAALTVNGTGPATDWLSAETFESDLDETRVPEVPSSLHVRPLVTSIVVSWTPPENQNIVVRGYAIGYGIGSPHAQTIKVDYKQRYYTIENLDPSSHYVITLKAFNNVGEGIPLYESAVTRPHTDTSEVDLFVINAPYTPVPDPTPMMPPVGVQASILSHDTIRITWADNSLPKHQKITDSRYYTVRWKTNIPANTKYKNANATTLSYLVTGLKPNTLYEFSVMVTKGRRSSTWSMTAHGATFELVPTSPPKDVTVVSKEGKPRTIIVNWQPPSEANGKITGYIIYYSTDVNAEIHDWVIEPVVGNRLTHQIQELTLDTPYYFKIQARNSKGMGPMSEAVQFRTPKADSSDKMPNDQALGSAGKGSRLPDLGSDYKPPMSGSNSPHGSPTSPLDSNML
UniProt O08722, residues 27-377: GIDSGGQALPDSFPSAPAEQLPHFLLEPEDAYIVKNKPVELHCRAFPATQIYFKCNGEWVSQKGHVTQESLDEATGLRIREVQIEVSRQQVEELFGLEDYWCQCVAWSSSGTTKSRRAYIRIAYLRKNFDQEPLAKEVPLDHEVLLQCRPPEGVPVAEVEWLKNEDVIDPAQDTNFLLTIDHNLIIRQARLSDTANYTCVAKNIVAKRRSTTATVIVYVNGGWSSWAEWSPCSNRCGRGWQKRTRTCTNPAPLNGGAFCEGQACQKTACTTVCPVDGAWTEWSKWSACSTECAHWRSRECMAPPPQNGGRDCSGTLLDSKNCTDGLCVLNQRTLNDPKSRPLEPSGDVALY
UniProt P02468, residues 34-492: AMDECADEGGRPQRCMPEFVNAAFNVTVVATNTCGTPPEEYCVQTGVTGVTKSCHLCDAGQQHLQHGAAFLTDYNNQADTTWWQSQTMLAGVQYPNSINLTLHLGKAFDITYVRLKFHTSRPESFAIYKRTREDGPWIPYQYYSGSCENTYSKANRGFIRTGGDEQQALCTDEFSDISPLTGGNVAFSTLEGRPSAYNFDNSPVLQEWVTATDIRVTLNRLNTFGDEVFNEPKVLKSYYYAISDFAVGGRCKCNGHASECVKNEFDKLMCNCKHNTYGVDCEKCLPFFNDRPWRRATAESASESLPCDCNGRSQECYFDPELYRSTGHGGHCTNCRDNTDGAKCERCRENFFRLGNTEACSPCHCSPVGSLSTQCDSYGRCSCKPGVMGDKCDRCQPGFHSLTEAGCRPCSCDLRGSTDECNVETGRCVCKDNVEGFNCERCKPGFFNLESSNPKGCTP

The target in assay [1] is Recombinant human DCC/Fc chimera (human) (UniProt P43146). As to the kind of experiment: BLI; Octet RED96; Fc chimera proteins (2 μg/ml) loaded on anti-human Fc (AHC) biosensors; netrins 50 nM in PBS, 0.1% BSA, 0.02% Tween 20; 30 °C; both purified.
Assay [2] has as its target Recombinant mouse neogenin/Fc chimera (mouse) (UniProt P97798). The description is as above.
Assay [3] addresses Recombinant rat UNC5H2/Fc chimera (rat) (UniProt O08722). The assay is described as above.
Assay [4] addresses laminin γ1 short arm fragment (γ1LN-LEa1-4) (Mus musculus) (UniProt P02468). As to the kind of experiment: AUC; sedimentation peaks of Net4-FL, Net4-ΔC and their complexes with γ1LN-LEa1-4; Supplementary Fig. 5e; both purified.
Assay [5] has the same target. As to the kind of experiment: SEC; analytical size-exclusion chromatography of single proteins and of mixtures; both purified.

B1: full-length Net4 (Net4-FL) (natural protein, Mus musculus, UniProt Q9JI33 20-628, looked up)
chain: LNGVAGANSRCEKACNPRMGNLALGRKLRADTMCGQNATELFCFYSENADLTCRQPKCDKCNAAHSHLAHPPSAMADSSFRFPRTWWQSAEDVHREKIQLDLEAEFYFTHLIMVFKSPRPAAMVLDRSQDFGKTWKPYKYFATNCSATFGLEDDVVKKGAICTSRYSNPFPCTGGEVIFRALSPPYDIENPYSAKVQEQLKITNLRVRLLKRQSCPCQINDLNAKPHHFMHYAVYDFIVKGSCFCNGHADQCLPVEGFRPIKAPGAFHVVHGRCMCKHNTAGSHCQHCAPLYNDRPWEAADGRTGAPNECRTCKCNGHADTCHFDVNVWEASGNRSGGVCNNCQHNTEGQHCQRCKPGFYRDLRRPFSAPDACKACSCHPVGSAILPFSSVTFCDPSNGDCPCKPGVAGPHCDRCMVGYWGFGDYGCRPCDCAGSCDPLTGDCISSNADVDWYHEVPAFHSMHNKSEPSWEWEDEQGFSALRHSGKCECKEQVLGNPKAFCGMKYSYVLKIKILSAHDKGSHAEVNVKIKKVLKSTKLKILRGKRTLYPESWTNRGCTCPILNPGLEYLVAGHEDVRTGKLIVNMKSFVQHWKPALGRRVMHILKRDCV
notes: also called netrin-4; wild-type Net4; source: HEK293, stably transfected, purified (streptactin-sepharose, thrombin digestion, SEC); not shown: double Strep II, N-terminal, cleaved
For the molecule B1, the binding entry in assay [1], in assay [2] and in assay [3] was “no binding (tested: 50 nM)” throughout.

B2: Net4 lacking the C-terminal domain (Net4-ΔC) (domain or fragment, Mus musculus, UniProt Q9JI33 20-462, looked up)
chain: LNGVAGANSRCEKACNPRMGNLALGRKLRADTMCGQNATELFCFYSENADLTCRQPKCDKCNAAHSHLAHPPSAMADSSFRFPRTWWQSAEDVHREKIQLDLEAEFYFTHLIMVFKSPRPAAMVLDRSQDFGKTWKPYKYFATNCSATFGLEDDVVKKGAICTSRYSNPFPCTGGEVIFRALSPPYDIENPYSAKVQEQLKITNLRVRLLKRQSCPCQINDLNAKPHHFMHYAVYDFIVKGSCFCNGHADQCLPVEGFRPIKAPGAFHVVHGRCMCKHNTAGSHCQHCAPLYNDRPWEAADGRTGAPNECRTCKCNGHADTCHFDVNVWEASGNRSGGVCNNCQHNTEGQHCQRCKPGFYRDLRRPFSAPDACKACSCHPVGSAILPFSSVTFCDPSNGDCPCKPGVAGPHCDRCMVGYWGFGDYGCRPCDCAGSCDPLTGDC
notes: lacks domain C); Two alternative constructs were cloned: one with an N-terminal His8 tag, one with an N-terminal double Strep II tag (not both on one chain); the tag was removed by thrombin; also called netrin-4; wild-type Net4; source: HEK293, stably transfected, purified (streptactin-sepharose or nickel TALON beads, thrombin digestion, SEC); not shown: double Strep II, N-terminal, cleaved; …
Regarding B2, in assay [4], the binding result is “binds”.

B3: MBP-Net4-ΔC (domain or fragment, UniProt Q9JI33 20-462)
chain: B2 chain
Take B3: in assay [5], the binding result is “binds”.

Source of the values: article PMC5141367, “Structural decoding of netrin-4 reveals a regulatory function towards mature basement membranes” (Nature Communications, 2016).
